In PMC4336329 (PLoS ONE, 2015):
Out of some 310,000 compounds screened, about 14,000 (4.5%) showed an effect of 50% or more. Effects have a minus sign here. Some of the results follow.

biological target: human ether-à-go-go-related gene (hERG) potassium channel (human, UniProt Q12809); assay: primary screen, population patch clamp on CHO cells stably expressing hERG
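Also: peak tail current of the secondary pulse compared with the same well before compound.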

human ether-à-go-go-related gene (hERG) potassium channel, sequence (Q12809 whole entry, looked up): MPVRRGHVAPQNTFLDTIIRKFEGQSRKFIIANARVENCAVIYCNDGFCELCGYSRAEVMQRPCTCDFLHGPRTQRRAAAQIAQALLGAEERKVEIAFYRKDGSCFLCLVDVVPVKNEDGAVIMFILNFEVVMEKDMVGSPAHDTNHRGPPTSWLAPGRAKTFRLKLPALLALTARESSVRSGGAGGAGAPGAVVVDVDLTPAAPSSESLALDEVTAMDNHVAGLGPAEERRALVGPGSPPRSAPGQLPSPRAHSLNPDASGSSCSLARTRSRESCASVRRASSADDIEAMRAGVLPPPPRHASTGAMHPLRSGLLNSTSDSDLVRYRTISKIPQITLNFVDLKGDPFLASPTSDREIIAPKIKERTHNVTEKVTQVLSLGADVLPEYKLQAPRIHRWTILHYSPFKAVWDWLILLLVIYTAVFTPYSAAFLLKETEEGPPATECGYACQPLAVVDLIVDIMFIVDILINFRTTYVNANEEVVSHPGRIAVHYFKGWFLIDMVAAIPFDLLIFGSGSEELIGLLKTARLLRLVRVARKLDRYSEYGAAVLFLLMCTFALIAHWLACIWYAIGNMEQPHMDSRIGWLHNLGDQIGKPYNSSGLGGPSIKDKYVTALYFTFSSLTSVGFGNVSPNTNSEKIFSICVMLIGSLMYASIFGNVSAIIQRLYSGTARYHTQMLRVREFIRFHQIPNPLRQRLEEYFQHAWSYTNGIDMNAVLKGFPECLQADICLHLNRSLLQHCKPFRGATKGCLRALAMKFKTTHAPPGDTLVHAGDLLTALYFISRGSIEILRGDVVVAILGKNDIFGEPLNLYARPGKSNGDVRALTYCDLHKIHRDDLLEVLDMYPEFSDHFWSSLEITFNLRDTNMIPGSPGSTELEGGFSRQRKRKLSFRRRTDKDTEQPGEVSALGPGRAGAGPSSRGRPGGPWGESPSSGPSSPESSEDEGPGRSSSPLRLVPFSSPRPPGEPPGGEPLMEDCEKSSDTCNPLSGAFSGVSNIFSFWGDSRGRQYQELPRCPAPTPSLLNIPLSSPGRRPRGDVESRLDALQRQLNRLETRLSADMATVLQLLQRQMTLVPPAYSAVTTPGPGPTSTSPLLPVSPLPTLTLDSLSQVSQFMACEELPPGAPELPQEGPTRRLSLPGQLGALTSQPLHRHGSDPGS

SMILES	hERG current change (%, negative = inhibition) at 10uM
Cc1cc(C)c(NC(=O)CSc2nnc(-c3ccncc3)n2Cc2ccco2)c(Cl)c1	-52.7%
O=C(Oc1ccnc2cc(Cl)ccc12)N1CCCCCC1	-23%
CCCn1c(=S)[nH]c2cc(C(=O)N3CCN(C(=O)OCC)CC3)ccc2c1=O	-6.49%
COC(=O)c1ccccc1NC(=O)c1ccc2nccnc2c1	12.6%
CN1CC(c2ccccc2)C(c2ccc(Cl)cc2)=N1 (centres unmarked)	1.66%
CN(C(=O)c1ccncc1)c1nnc(-c2ccccn2)s1	1.22%
Cc1ccc(NC(=S)NCc2ccccn2)cc1	8.8%
CCC1=NN(C(=O)C(=O)Nc2ccccc2OC)C(O)(C(F)(F)F)C1 (centres unmarked)	24.4%
Cc1ccc(N(Cc2cc3ccc(C)cc3[nH]c2=O)C(=O)c2cccs2)cc1	1.3%
O=C(Nc1cccc(Cl)c1)c1ccc(S(=O)(=O)NCC2CCCO2)cc1 (centres unmarked)	-7.31%
CC(=C1C2C=CC1C1C(=O)NC(=O)C21)c1ccccc1 (centres unmarked)	2.05%
CC(=O)NC(C)c1nc2ccccc2n1CC(=O)NC(C)CCc1ccccc1 (centres unmarked)	8.74%
Clc1ccc2c(c1)C1OCCC1C(c1ccco1)N2 (centres unmarked)	-16.2%
CC(=O)c1ccc(S(=O)(=O)N(C)CCCC(=O)N(C)Cc2ccccc2F)cc1	-35%
C=CCNC(=O)/C(C#N)=C/c1cn(-c2ccccc2)nc1-c1ccc(OC)c([N+](=O)[O-])c1	0.277%
COCc1cc(C)nc(Oc2ccccc2)c1C#N	-2.11%
O=C(c1c[nH]c2ccccc12)C(Cl)c1ccccc1 (centres unmarked)	13.9%
C=CCOc1nc2c(c(=O)n(Cc3ccc(Cl)cc3)c(=O)n2C)n1C	-2.66%
CC(=O)c1ccc(NC(=O)CCC(=O)OCC(F)(F)C(F)F)cc1	7.18%
Cc1cc(C)c(NC(=O)COC(=O)C2=COCCO2)c(Cl)c1	12.8%
O=C(O)CSCc1ccc(Cl)cc1	8.76%
Clc1ccc(-c2nnc(-c3ccco3)o2)cc1	4.59%
COc1ccc(-c2csc(NCc3ccco3)n2)cc1C	13.5%
CCC1(C(=O)OC)NC(c2ccco2)C2C(=O)N(c3ccccc3)C(=O)C21 (centres unmarked)	4.8%
O=C(c1ccc(Cl)s1)N1CCN(C23CC4CC(CC(C4)C2)C3)CC1	-12.7%
CCC/C(C)=C/c1ccc(CC)cn1	6.39%
